Test results published in the supplement of paper PMC8728848.
The list shows a part of the results.

Key:
Assay in all cases: glycan array binding signal (z-score within array); higher = stronger binding
Details in all cases: glycan notation: IUPAC condensed, linker removed
[1] = target: Fuc(a1-2)Gal(b1-4)GlcNAc(b1-2)[Fuc(a1-2)Gal(b1-4)GlcNAc(b1-4)]Man(a1-3)[Fuc(a1-2)Gal(b1-4)GlcNAc(b1-2)Man(a1-6)]Man(b1-4)GlcNAc(b1-4)GlcNAc
In short: (§1)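 The binding signal is a Z-score computed within each array and averaged over linkers. Arrays of the same protein sequence at different concentrations or buffers were also averaged together. Data originate from 3228 arrays in the Consortium for Functional Glycomics database, kept only where the protein sequence was available.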

[2] = target: Fuc(a1-2)Gal(b1-4)GlcNAc(b1-3)Gal(b1-4)GlcNAc
In short: as §1

[3] = target: Fuc(a1-2)Gal(b1-4)GlcNAc(b1-3)Gal(b1-4)GlcNAc(b1-2)Man(a1-3)[Fuc(a1-2)Gal(b1-4)GlcNAc(b1-3)Gal(b1-4)GlcNAc(b1-2)Man(a1-6)]Man(b1-4)GlcNAc(b1-4)GlcNAc
In short: as §1

[4] = target: Fuc(a1-2)Gal(b1-4)GlcNAc(b1-3)Gal(b1-4)GlcNAc(b1-3)Gal(b1-4)GlcNAc
In short: as §1

[5] = target: Fuc(a1-2)Gal(b1-4)GlcNAc(b1-3)GalNAc
In short: as §1

[6] = target: Fuc(a1-2)Gal(b1-4)GlcNAc(b1-3)[Fuc(a1-2)Gal(b1-4)GlcNAc(b1-6)]GalNAc
In short: as §1

[7] = target: Fuc(a1-2)Gal(b1-4)GlcNAc(b1-3)[Fuc(a1-3)[Gal(b1-4)]GlcNAc(b1-6)]Gal(b1-4)Glc
In short: as §1

[8] = target: Fuc(a1-2)Gal(b1-4)GlcNAc(b1-6)GalNAc
In short: as §1

[9] = target: Fuc(a1-2)Gal(b1-4)GlcNAc6S
In short: as §1

[10] = target: Fuc(a1-2)Gal(b1-4)[Fuc(a1-3)]GlcNAc
In short: as §1

[11] = target: Fuc(a1-2)Gal(b1-4)[Fuc(a1-3)]GlcNAc(b1-2)Man(a1-3)[Fuc(a1-2)Gal(b1-4)[Fuc(a1-3)]GlcNAc(b1-2)Man(a1-6)]Man(b1-4)GlcNAc(b1-4)GlcNAc
In short: as §1

[12] = target: Fuc(a1-2)Gal(b1-4)[Fuc(a1-3)]GlcNAc(b1-2)Man(a1-3)[Fuc(a1-2)Gal(b1-4)[Fuc(a1-3)]GlcNAc(b1-2)Man(a1-6)]Man(b1-4)GlcNAc(b1-4)[Fuc(a1-6)]GlcNAc
In short: as §1

[13] = target: Fuc(a1-2)Gal(b1-4)[Fuc(a1-3)]GlcNAc(b1-2)[Fuc(a1-2)Gal(b1-4)[Fuc(a1-3)]GlcNAc(b1-4)]Man(a1-3)[Fuc(a1-2)Gal(b1-4)[Fuc(a1-3)]GlcNAc(b1-2)Man(a1-6)]Man(b1-4)GlcNAc(b1-4)GlcNAc
In short: as §1

[14] = target: Fuc(a1-2)Gal(b1-4)[Fuc(a1-3)]GlcNAc(b1-3)Gal(b1-4)[Fuc(a1-3)]GlcNAc
In short: as §1

[15] = target: Fuc(a1-2)Gal(b1-4)[Fuc(a1-3)]GlcNAc(b1-3)Gal(b1-4)[Fuc(a1-3)]GlcNAc(b1-3)Gal(b1-4)[Fuc(a1-3)]GlcNAc
In short: as §1

[16] = target: Fuc(a1-2)Gal(b1-4)[Fuc(a1-3)]GlcNAc(b1-3)GalNAc
In short: as §1

[17] = target: Fuc(a1-2)Gal(b1-4)[Fuc(a1-3)]GlcNAc(b1-3)[Neu5Ac(a2-6)Gal(b1-4)GlcNAc(b1-6)]Gal(b1-4)Glc
In short: as §1

[18] = target: Fuc(a1-2)Gal3S(b1-4)GlcNAc
In short: as §1

[19] = target: Fuc(a1-2)Gal6S(b1-3)GlcNAc
In short: as §1

[20] = target: Fuc(a1-2)Gal6S(b1-3)GlcNAc6S
In short: as §1

[21] = target: Fuc(a1-2)Gal6S(b1-4)Glc
In short: as §1

[22] = target: Fuc(a1-2)Gal6S(b1-4)Glc6S
In short: as §1

[23] = target: Fuc(a1-2)Gal6S(b1-4)GlcNAc
In short: as §1

[24] = target: Fuc(a1-2)[Gal(a1-3)]Gal
In short: as §1

[25] = target: Fuc(a1-2)[Gal(a1-3)]Gal(b1-3)GalNAc
In short: as §1

[26] = target: Fuc(a1-2)[Gal(a1-3)]Gal(b1-3)GalNAc(b1-3)Gal(a1-4)Gal(b1-4)Glc
In short: as §1

[27] = target: Fuc(a1-2)[Gal(a1-3)]Gal(b1-3)GlcNAc
In short: as §1

[28] = target: Fuc(a1-2)[Gal(a1-3)]Gal(b1-3)GlcNAc(b1-2)Man(a1-3)[Fuc(a1-2)[Gal(a1-3)]Gal(b1-3)GlcNAc(b1-2)Man(a1-6)]Man(b1-4)GlcNAc(b1-4)GlcNAc
In short: as §1

[29] = target: Fuc(a1-2)[Gal(a1-3)]Gal(b1-3)GlcNAc(b1-2)Man(a1-3)[Fuc(a1-2)[Gal(a1-3)]Gal(b1-3)GlcNAc(b1-2)Man(a1-6)]Man(b1-4)GlcNAc(b1-4)[Fuc(a1-6)]GlcNAc
In short: as §1

[30] = target: Fuc(a1-2)[Gal(a1-3)]Gal(b1-3)GlcNAc(b1-3)GalNAc
In short: as §1

[31] = target: Fuc(a1-2)[Gal(a1-3)]Gal(b1-3)GlcNAc(b1-6)GalNAc
In short: as §1

[32] = target: Fuc(a1-2)[Gal(a1-3)]Gal(b1-4)Glc
In short: as §1

[33] = target: Fuc(a1-2)[Gal(a1-3)]Gal(b1-4)GlcNAc
In short: as §1

[34] = target: Fuc(a1-2)[Gal(a1-3)]Gal(b1-4)GlcNAc(b1-2)Man
In short: as §1

[35] = target: Fuc(a1-2)[Gal(a1-3)]Gal(b1-4)GlcNAc(b1-2)Man(a1-3)[Fuc(a1-2)[Gal(a1-3)]Gal(b1-4)GlcNAc(b1-2)Man(a1-6)]Man(b1-4)GlcNAc(b1-4)GlcNAc
In short: as §1

[36] = target: Fuc(a1-2)[Gal(a1-3)]Gal(b1-4)GlcNAc(b1-2)Man(a1-3)[Fuc(a1-2)[Gal(a1-3)]Gal(b1-4)GlcNAc(b1-2)Man(a1-6)]Man(b1-4)GlcNAc(b1-4)[Fuc(a1-6)]GlcNAc
In short: as §1

[37] = target: Fuc(a1-2)[Gal(a1-3)]Gal(b1-4)GlcNAc(b1-3)GalNAc
In short: as §1

B1: rAAL-2 (Agrocybe aegerita) (protein)
chain: MTSNVITQDLPIPVASRGFADIVGFGLDGVVIGRNAVNLQPFLAVKNFAQNAGGWLTTKHVRLIADTTGTGKGDIVGFGNAGVYVSVNNGKNTFADPPKMVIANFGYDAGGWRVEKHLRYLADIRKIGRADIIGFGEKGVLVSRNNGGLNFGPATLVLKDFGYDAGGWRLDRHLRFLADVTGNGHLDIVGFGDKHVFISRNNGDGTFAPAKSVIDNFCIDAGGWKIGDHPRFVADLTGDGTADIIGCGKAGCWVALNNGGGVFGQVKLVINDFGTDKGWQAAKHPRFIADLTGNGRGDVVGFGNAGVYVALNNGDGTFQSAKLVLKDFGVQQGWTVSKHRRFVVDLTGDGCADIIGFGEKETLVSYNDGKGNFGPVKALTNDFSFSGGKWAPETTVCWMANLDSSRH
- glycan array binding signal (z-score) [1]: -0.099
- glycan array binding signal (z-score) [2]: -0.31
- glycan array binding signal (z-score) [3]: -0.083
- glycan array binding signal (z-score) [4]: -0.25
- glycan array binding signal (z-score) [5]: -0.181
- glycan array binding signal (z-score) [6]: -0.373
- glycan array binding signal (z-score) [7]: -0.159
- glycan array binding signal (z-score) [8]: 0.273
- glycan array binding signal (z-score) [9]: -0.192
- glycan array binding signal (z-score) [10]: -0.292
- glycan array binding signal (z-score) [11]: -0.155
- glycan array binding signal (z-score) [12]: 0.188
- glycan array binding signal (z-score) [13]: -0.081
- glycan array binding signal (z-score) [14]: -0.276
- glycan array binding signal (z-score) [15]: -0.197
- glycan array binding signal (z-score) [16]: -0.062
- glycan array binding signal (z-score) [17]: -0.325
- glycan array binding signal (z-score) [18]: -0.312
- glycan array binding signal (z-score) [19]: -0.3
- glycan array binding signal (z-score) [20]: -0.331
- glycan array binding signal (z-score) [21]: -0.232
- glycan array binding signal (z-score) [22]: -0.27
- glycan array binding signal (z-score) [23]: -0.301
- glycan array binding signal (z-score) [24]: -0.221
- glycan array binding signal (z-score) [25]: -0.278
- glycan array binding signal (z-score) [26]: 0.126
- glycan array binding signal (z-score) [27]: -0.296
- glycan array binding signal (z-score) [28]: -0.296
- glycan array binding signal (z-score) [29]: -0.193
- glycan array binding signal (z-score) [30]: -0.151
- glycan array binding signal (z-score) [31]: 0.161
- glycan array binding signal (z-score) [32]: -0.108
- glycan array binding signal (z-score) [33]: -0.336
- glycan array binding signal (z-score) [34]: -0.497
- glycan array binding signal (z-score) [35]: -0.293
- glycan array binding signal (z-score) [36]: 0.035
- glycan array binding signal (z-score) [37]: -0.236
